From publication doi:10.1101/2021.02.19.432017 (bioRxiv, 2021)

Assays:
[1] = target: T1, Ras suppressor-1 (Rsu-1), wild type (human, UniProt Q15404 1-277); assay: BLI
T1 sequence: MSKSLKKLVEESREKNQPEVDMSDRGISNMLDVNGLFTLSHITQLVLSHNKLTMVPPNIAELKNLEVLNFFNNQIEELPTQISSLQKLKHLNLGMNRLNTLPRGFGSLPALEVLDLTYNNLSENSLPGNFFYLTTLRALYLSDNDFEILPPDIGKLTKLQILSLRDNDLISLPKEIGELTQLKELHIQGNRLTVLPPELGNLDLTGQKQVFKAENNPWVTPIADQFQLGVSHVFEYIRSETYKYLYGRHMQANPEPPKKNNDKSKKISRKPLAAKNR

[2] = target: T2, Rsu-1 double mutant (FRAA) (human, UniProt Q15404 1-277, Phe71 to alanine (FRAA) | Arg165 to alanine (FRAA)); assay: BLI
T2 sequence: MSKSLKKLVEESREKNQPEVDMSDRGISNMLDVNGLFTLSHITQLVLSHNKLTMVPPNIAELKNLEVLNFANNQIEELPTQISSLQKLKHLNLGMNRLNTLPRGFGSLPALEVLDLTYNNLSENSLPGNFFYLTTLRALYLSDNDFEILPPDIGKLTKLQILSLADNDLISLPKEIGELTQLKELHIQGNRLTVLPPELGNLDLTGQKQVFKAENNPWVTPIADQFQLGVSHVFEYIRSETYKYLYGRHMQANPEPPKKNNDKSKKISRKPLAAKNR

[3] = target: T1, Ras suppressor-1 (Rsu-1), wild type; assay: SEC

B1: GST-fused PINCH-1 LIM4-5 domain (domain or fragment)
chain: GVPICGACRRPIEGRVVNAMGKQWHVEHFVCAKCEKPFLGHRHYERKGLAYCETHYNQL[letters of about 80 residues left out]
Kd [1]: 0.00137 ± 0.0005 µM

B2: GST-fused PINCH-1 LIM5 domain (domain or fragment)
chain: not shown
binding result [1]: binds | Kd [2]: ~1 µM

B3: GST-fused PINCH-1 LIM5 domain, Asp295 substituted by Val295 (domain or fragment)
chain: not shown
binding result [1]: binds

B4: PINCH-1 LIM5 domain (size exclusion, thermal shift) (domain or fragment)
chain: not shown
binding result [3]: binds
